Experimental data as given in PubChem BioAssay AID504466 (National Center for Advancing Translational Sciences (NCATS), 2011).
Out of some 330,000 compounds screened, about 4,200 (1.3%) were called active. The inconclusive results got no clear call from the source; some entries with a clear call stand among them for comparison. Calls come from the whole dose curve; as a rule, active = well fitted activation curve with a large enough effect; inconclusive = small, poorly fitted or top-dose-only effect; inactive = no such curve, though single readings can be large or run the other way. Potencies beside an inconclusive call are fits to weak or partial responses and may not hold up.

Assay: qHTS screen for small molecules that induce genotoxicity in human embryonic kidney (HEK293T) cells expressing luciferase-tagged ELG1; note: nearly all actives have a fitted effect of over 60% in size
Details: HEK293T ELG1-luciferase reporter, luminescence, 16 h; series mostly up to 46 µM
Procedure, shortened: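 Genotoxic stress is detected as increased luminescence from luciferase-tagged ELG1 in HEK293T cells, measured with ONE-Glo after a 16 hr treatment at 37 °C.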
Potency is the fitted concentration of half-maximal effect; tags give direction and shape of the fitted curve.

SMILES	Potency
COc1cc(/C=N/NC(=O)c2ccccn2)cc2c1OCO2	inconclusive: 9.2 µM [activator, partial curve, poor fit]
Cc1[nH]n(-c2ccc([N+](=O)[O-])cc2)c(=O)c1C=NCCc1c(C)[nH]c2ccccc12	inactive
O=C(Nc1ccc(-c2nc3ccccc3[nH]2)cc1)C1CCCO1 (stereo not drawn)	active: 0.411 µM
O=C(CCCc1ccccc1)N1CCc2ccccc21	active: 2.06 µM
O=C(Nc1c(-c2ccccc2)nc2ccccn12)c1cccs1	inactive
Cc1cc2nc(SCCN3CCOCC3)[nH]c2cc1C	active: 18.4 µM
O=C(CNC(=O)c1cccs1)OCc1c(F)cccc1Cl	inconclusive: 5.62 µM [activator, single point]
Cc1cc(C)cc(OCC(=O)NNC(=O)c2ccccn2)c1	inconclusive: 29.1 µM [activator, single point]
c1ccc2[nH]c(SCc3ccc(-c4nnco4)cc3)nc2c1	inconclusive: 13 µM [activator, partial curve, poor fit]
Cc1ccc(C(=O)N/N=C\c2cccnc2)s1	inconclusive: 20.6 µM [activator, partial curve]
c1ccc(-c2cc3ccccc3cn2)cc1	inconclusive: 10.3 µM [activator, partial curve]
CCN1/C(=C/C(=O)c2ccco2)Sc2ccccc21	inactive
COCCOc1ccc(C(F)(F)F)cc1Nc1nc2ccccc2o1	inconclusive: 35.5 µM [activator, single point]
COc1ccc(N/C=C2\CCOC2=O)cc1	inactive
O/N=C/c1ccc(OCc2ccccc2)c(Br)c1	active: 14.6 µM
O=CN1CCN(C(=O)c2ccc(-c3nc4ccccc4s3)s2)CC1	inconclusive: 2.31 µM [activator, single point]
N#CC1(NC(=O)CN2CCN(S(=O)(=O)c3ccccc3F)CC2)CCCC1	inactive
CCN(CC)CCN1C(=O)Cn2c(C)c(C)c3cccc1c32	inactive
CC(=O)c1ccc(N2CCN(c3ncccn3)CC2)cc1	inconclusive: 23.1 µM [activator, partial curve, poor fit]
CC1CCC(C(=O)NC(C(=O)NCCc2ccc(S(N)(=O)=O)cc2)C(C)C)CC1 (stereo not drawn)	inactive
NC(=O)c1cnn(-c2ccc3ccccc3c2)c1N	inconclusive: 12.6 µM [activator, partial curve, poor fit]
Cc1nn(-c2ccc(C(=O)O)cc2)c(N)c1-c1ccccc1	inconclusive: 4.61 µM [activator, partial curve]
CCCc1cc(=O)n2[nH]c(-c3ccccc3)cc2n1	inconclusive: 13 µM [activator, partial curve]
CCC(C)(C)NC(=O)C(c1ccc(C)o1)N(Cc1ccc2c(c1)OCO2)C(=O)c1snc(C(N)=O)c1N (stereo not drawn)	inactive

SMILES	Potency
CCOCCCNC(=O)c1cc2c(=O)n3ccccc3nc2s1	inconclusive: 13 µM [activator, partial curve, poor fit]
Cc1ccc(C)c(N2CCN(C(=O)c3ccc(CS(=O)Cc4ccc(Cl)cc4)o3)CC2)c1 (stereo not drawn)	inactive
O=C(Nc1cccnc1)c1ccc(C(=O)Nc2cccnc2)cc1	inactive
CC(OC(=O)Cn1cnc2c1c(=O)n(C)c(=O)n2C)C(=O)Nc1ccc(Cl)cc1 (stereo not drawn)	inactive
N/C(=N\OC(=O)c1ccccc1F)c1ccc([N+](=O)[O-])cc1	inconclusive: 6.51 µM [activator, partial curve, poor fit]
CC1CCCCN1C(=O)CSc1nnc(-c2cccs2)o1 (stereo not drawn)	inconclusive: 9.2 µM [activator, partial curve]
Cc1ccc(NC(=O)CC(NC(=O)c2ccccc2Cl)c2ccccc2)nc1 (stereo not drawn)	inconclusive: 25.9 µM [activator, partial curve, poor fit]
COc1ccc(N2CCN(C(=O)c3ccccc3NS(=O)(=O)c3ccccc3)CC2)cc1	inconclusive: 6.51 µM [activator, single point]
CCNC(=O)c1sc(-c2ccccc2)nc1C	inconclusive: 9.2 µM [activator, partial curve, poor fit]
Cc1oc(=O)c(NC(=O)c2ccccc2)cc1C(=O)c1ccccc1	inconclusive: 20.6 µM [activator, partial curve]
CCC(C)[C@H](NC(=O)N1CCn2c1nc1ccccc12)C(=O)NCc1ccccc1 (stereo partly drawn)	inactive
CCCc1cc(-c2nc(-c3ccc(C)cc3)cs2)ccn1	inconclusive: 23.1 µM [activator, partial curve, poor fit]
N/C(=N\OC(=O)COc1ccc(Cl)cc1Cl)c1ccncc1	inconclusive: 3.26 µM [activator, partial curve]
CN(C)C(=O)CCCc1nc(-c2ccc(Cl)cc2)no1	active: 14.6 µM
O=C(CSCC(=O)Nc1nc(-c2ccc3c(c2)OCO3)cs1)Nc1nccs1	inactive
Cc1cc(C(=O)Cn2nc(C(=O)O)c3ccccc3c2=O)c(C)n1-c1ccccc1	inconclusive: 18.4 µM [activator, partial curve]
COc1ccc(C(=O)C2CCCN(C3Cc4ccccc4C3)C2)c(OC)c1 (stereo not drawn)	inactive
Cn1c(-c2cc3ccc(OC(=O)C(C)(C)C)cc3oc2=O)nc2ccccc21	inconclusive: 16.4 µM [activator, partial curve]
COc1ccc(C(=S)Nc2ccc(N(C)C)cc2)cc1	inconclusive: 1.58 µM [activator, full curve, poor fit]
Cc1nc2ncccn2c1-c1csc(Nc2ccc(O)cc2)n1	inconclusive: 2.91 µM [activator, full curve, poor fit]
Cc1cccc2cn[nH]c12	inactive
Cn1c(N)c(C(=O)c2cc(-c3ccncc3)nc3ccccc23)c(=O)n(C)c1=O	inconclusive: 23.1 µM [activator, partial curve, poor fit]
O=c1c2nnn(Cc3ccccc3)c2ncn1-c1ccccc1	inconclusive: 14.6 µM [activator, partial curve, poor fit]
O=C(NCCc1c[nH]c2ccccc12)c1ccc(Cl)cc1	inconclusive: 18.3 µM [activator, partial curve]
